In paper PMC4007762:
Results are given in words; binding and its absence hold for the method and conditions named. In cells and extracts the contact can be indirect. Some binding calls cover weakened binding; strength is not graded here. Tags and fused reporters may be left off the sequences shown.

Target: T1, GST–PTP-PEST-C231S fusion protein (catalytically inactive trapping mutant) (UniProt Q05209)
T1 sequence: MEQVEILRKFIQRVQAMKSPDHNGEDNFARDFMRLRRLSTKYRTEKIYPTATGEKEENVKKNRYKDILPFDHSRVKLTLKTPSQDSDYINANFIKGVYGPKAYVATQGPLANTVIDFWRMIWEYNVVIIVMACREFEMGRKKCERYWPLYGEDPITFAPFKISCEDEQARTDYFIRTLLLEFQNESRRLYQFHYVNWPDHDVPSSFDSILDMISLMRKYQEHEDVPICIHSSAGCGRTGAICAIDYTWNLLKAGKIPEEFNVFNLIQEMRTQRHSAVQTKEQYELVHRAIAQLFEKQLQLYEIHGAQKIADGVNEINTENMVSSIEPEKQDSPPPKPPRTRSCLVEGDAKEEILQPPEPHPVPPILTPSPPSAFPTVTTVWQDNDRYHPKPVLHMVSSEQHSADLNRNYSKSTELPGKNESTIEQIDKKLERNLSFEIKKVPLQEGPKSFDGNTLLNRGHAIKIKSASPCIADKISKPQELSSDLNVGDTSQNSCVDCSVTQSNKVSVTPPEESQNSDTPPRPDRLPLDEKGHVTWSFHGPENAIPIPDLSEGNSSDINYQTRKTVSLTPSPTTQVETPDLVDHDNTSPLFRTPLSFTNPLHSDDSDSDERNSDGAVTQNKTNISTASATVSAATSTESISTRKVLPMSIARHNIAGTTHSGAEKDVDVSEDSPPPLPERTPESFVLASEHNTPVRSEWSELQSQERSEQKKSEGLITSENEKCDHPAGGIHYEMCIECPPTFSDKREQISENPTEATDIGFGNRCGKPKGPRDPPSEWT
Assay: pull-down; substrate trapping: 10 µg GST fusion protein with 1 mg lysate of pervanadate-treated transfected cells (HEK 293T named for Fig. 1B and 6B), modified RIPA buffer, 4°C, 1 hour; western blot with anti-YFP; only the target purified

B1: p120-Y8F (p120-1A with eight tyrosines changed to phenylalanine) (protein, UniProt P30999 1-938)
chain: MDDSEVESTASILASVKEQEAQFEKLTRALEEERRHVSAQLERVRVSPQDANSLMANGTLTRRHQNGRFVGDADLERQKFSDLKLNGPQDHNHLLFSTIPRMQEPGQIVETFTEEDPEGAMSVVSVETTDDGTTRRTETTVKKVVKTMTTRTVQPVPMGPDGLPVDASAVSNNYIQTLGRDFRKNGNGGPGPYVGQAGTATLPRNFHYPPDGYGRHYEDGYPGGSDNFGSLSRVTRIEERYRPSMEGYRAPSRQDVFGPQPQVRVGGSSVDLHRFHPEPFGLEDDQRSMGFDDLDFGMMSDFGTARRTGTPSDPRRRLRSYEDMIGEEVPPDQYYWAPLAQHERGSLASLDSLRKGMPPPSNWRQPELPEVIAMLGFRLDAVKSNAAAYLQHLCYRNDKVKTDVRKLKGIPILVGLLDHPKKEVHLGACGALKNISFGRDQDNKIAIKNCDGVPALVRLLRKARDMDLTEVITGTLWNLSSHDSIKMEIVDHALHALTDEVIIPHSGWEREPNEDCKPRHIEWESVLTNTAGCLRNVSSERSEARRKLRECDGLVDALIFIVQAEIGQKDSDSKLVENCVCLLRNLSYQVHREIPQAERYQEALPTVANSTGPHAASCFGAKKGKDEWFSRGKKPTEDPANDTVDFPKRTSPARGYELLFQPEVVRIYISLLKESKTPAILEASAGAIQNLCAGRWTYGRYIRSALRQEKALSAIAELLTSEHERVVKAASGALRNLAVDARNKELIGKHAIPNLVKNLPGGQQNSSWNFSEDTVVSILNTINEVIAENLEAAKKLRETQGIEKLVLINKSGNRSEKEVRAAALVLQTIWGYKELRKPLEKEGWKKSDFQVNLNNASRSQSSHSYDDSTLPLIDRNQKSDKKPDREEIPMSNMGSNTKSLDNNYSTLNERGDHNRTLDRSGDLGDMEPLKGAPLMQKI
- binding: binds

B2: YFP–p120-1A Y334F (protein, UniProt P30999 1-938)
chain: MDDSEVESTASILASVKEQEAQFEKLTRALEEERRHVSAQLERVRVSPQDANSLMANGTLTRRHQNGRFVGDADLERQKFSDLKLNGPQDHNHLLYSTIPRMQEPGQIVETYTEEDPEGAMSVVSVETTDDGTTRRTETTVKKVVKTMTTRTVQPVPMGPDGLPVDASAVSNNYIQTLGRDFRKNGNGGPGPYVGQAGTATLPRNFHYPPDGYGRHYEDGYPGGSDNYGSLSRVTRIEERYRPSMEGYRAPSRQDVYGPQPQVRVGGSSVDLHRFHPEPYGLEDDQRSMGYDDLDYGMMSDYGTARRTGTPSDPRRRLRSYEDMIGEEVPPDQFYWAPLAQHERGSLASLDSLRKGMPPPSNWRQPELPEVIAMLGFRLDAVKSNAAAYLQHLCYRNDKVKTDVRKLKGIPILVGLLDHPKKEVHLGACGALKNISFGRDQDNKIAIKNCDGVPALVRLLRKARDMDLTEVITGTLWNLSSHDSIKMEIVDHALHALTDEVIIPHSGWEREPNEDCKPRHIEWESVLTNTAGCLRNVSSERSEARRKLRECDGLVDALIFIVQAEIGQKDSDSKLVENCVCLLRNLSYQVHREIPQAERYQEALPTVANSTGPHAASCFGAKKGKDEWFSRGKKPTEDPANDTVDFPKRTSPARGYELLFQPEVVRIYISLLKESKTPAILEASAGAIQNLCAGRWTYGRYIRSALRQEKALSAIAELLTSEHERVVKAASGALRNLAVDARNKELIGKHAIPNLVKNLPGGQQNSSWNFSEDTVVSILNTINEVIAENLEAAKKLRETQGIEKLVLINKSGNRSEKEVRAAALVLQTIWGYKELRKPLEKEGWKKSDFQVNLNNASRSQSSHSYDDSTLPLIDRNQKSDKKPDREEIPMSNMGSNTKSLDNNYSTLNERGDHNRTLDRSGDLGDMEPLKGAPLMQKI
- binding: binds
